This note sets out measurements from the supplement of paper PMC12340641.

The full ranking holds about 1,000 compounds; the median of “relative growth recovery (pomalidomide 10 uM = 100%, DMSO = 0%)” is about -1.6, and the highest 2% start at about 21. The list shows a part of the results.

The assay has as its system HEK293FT dCK*-IKZF1. Briefly: relative growth recovery (pomalidomide 10 uM = 100%, DMSO = 0%); higher = more growth rescue (IKZF1 fusion degradation). The conditions noted are these: compound concentration: 5 uM; AraC concentration: 0.3 uM; overnight pretreatment + 4 days AraC. The protocol: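 Growth recovery screen of the molecular-glue-like (Specs) library. HEK293FT cells expressing a dCK*-IKZF1 fusion (primary) or dCK* alone (counter) were pretreated overnight with compound at 5 uM, then given 0.3 uM AraC for 4 days. Hoechst nuclei were counted by imaging. Primary: normalised to pomalidomide (100%) and DMSO (0%), mean of 2 replicates. Counter: normalised to no-AraC (100%) and AraC+DMSO (0%), single replicate.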
For the molecule `COc1ccc(/C=C/C(=O)Nc2ccc(S(=O)(=O)Nc3cc(C)nc(C)n3)cc2)cc1`, the relative growth recovery is -2.46%. To `Cc1nc(Nc2cccc(C3CCCN3C(=O)CCCN3C(=O)CNC3=O)n2)sc1C` (stereo unspecified) belongs 3.93%. The same measure for `O=C(O)CCOCCNc1cccc2c1C(=O)N(C1CCC(=O)NC1=O)C2=O` (stereo unspecified): -5.19%; for `COc1ccc(OCCCC(=O)Nc2ccc(S(=O)(=O)Nc3cc(C)nc(C)n3)cc2)cc1`: 1.14%. To `Cc1csc(Nc2cccc(C3CCN(CC(=O)N4CCC(C(N)=O)CC4)CC3)n2)n1` belongs 5.36%; to `COc1ccc(/C=C/C(=O)NC(=S)Nc2ccc(S(=O)(=O)Nc3nccnc3OC)cc2)cc1OC`, -18%.

As to `CC(=O)N1CCCC1CCc1ccc(Nc2ncc(-c3ccc(F)cc3)s2)nc1` (stereo unspecified), the relative growth recovery was -7.83%. The same measure for `O=[N+]([O-])c1ccc(S(=O)(=O)Nc2ncccn2)cc1`: -1.17%. The same measure for `Cc1cnc(Nc2cccc(C3CN(C(=O)CN(C(=O)CC(C)C)c4ccccc4)CCO3)n2)s1` (stereo unspecified): 1.34%; for `CCCC(=O)Nc1ccc(S(=O)(=O)Nc2cc(C)nc(C)n2)cc1`: -1.16%. The same measure for `CCC(C(=O)Nc1ccc(S(=O)(=O)Nc2ncccn2)cc1)c1ccccc1` (stereo unspecified): -4.23%. For `O=C(CN1CCC(c2cccc(Nc3nccs3)n2)CC1)N1CCCc2ccccc21`, the relative growth recovery was -1.5%. To `Cc1cnc(Nc2cccc(C3CCCN3C(=O)CCOc3ccccc3C)n2)s1` (stereo unspecified) belongs -5.03%; to `CC(=O)Nc1ccc(-c2csc(Nc3ccccn3)n2)cc1`, 2.7%. The same measure for `Cc1cc(C)c2[nH]c3nc(SCC(=O)Nc4ccc(F)cc4)nnc3c2c1`: -9.18%; for `Cn1nccc1/C=C/C(=O)N1CCCC1c1csc(Nc2ccccn2)n1` (stereo unspecified): 2.75%; for `Cc1cnc(Nc2cccc(C3CCN(C(=O)C45CC6CC(CC(O)(C6)C4)C5)CC3)n2)s1`: -15.2%. The same measure for `COCC(=O)N1CCCC1c1cccc(Nc2nccs2)n1` (stereo unspecified): -3.5%; for `Cc1cc(C)c2[nH]c3nc(SCC(=O)Nc4cccc(Cl)c4)nnc3c2c1`: -10%. In the case of `Cc1cc(C)nc(NS(=O)(=O)c2ccc(NC(=O)Cn3cnc4ccccc4c3=O)cc2)n1`, the relative growth recovery was determined as 0.065%. To `CCCOc1ccccc1C(=O)Nc1ccc(S(=O)(=O)Nc2nc(C)cc(C)n2)cc1` belongs -1.94%; to `CCS(=O)(=O)Nc1ccc(S(=O)(=O)Nc2nc(C)cc(C)n2)cc1`, -4.85%. To `CC(C)(C)C(=O)N1CCOC(c2cccc(Nc3ncc(-c4cccnc4)s3)n2)C1` (stereo unspecified) belongs 13.5%; to `Cc1cnc(Nc2cccc(C3CCN(CC(=O)NCc4ccccn4)CC3)n2)s1`, -0.73%. The same measure for `CCCc1cnc(Nc2cccc(C3(C(N)=O)CCN(C(=O)C4CCCCC4)CC3)n2)s1`: -11.7%; for `CNC(=O)C(c1cccc(Nc2ncc(C)s2)n1)C1CCN(C(=O)[C@H](CC(C)C)NC(=O)OC(C)(C)C)CC1` (stereo partly specified): -1.13%; for `NC1(C(=O)N2CCC(c3cccc(Nc4ncc(Cl)s4)n3)CC2)CC1`: -20.3%. Turning to `Cc1cc(NS(=O)(=O)c2ccc(NC(=O)c3ccccc3Cl)cc2)nc(C)n1`, the relative growth recovery was 1.01%. To `CC(C)N(C(=O)CN1CCOC(c2cccc(Nc3nccs3)n2)C1)C1CCCCC1` (stereo unspecified) belongs -2.24%; to `Cc1cnc(Nc2cccc(C3CN(C(=O)C4CC=CCC4)CCO3)n2)s1` (stereo unspecified), -8.73%; to `COC(=O)C(c1cccc(Nc2ncc(C)s2)n1)C1CCN(C(=O)C2CCCCC2)CC1` (stereo unspecified), 5.28%. To `Cc1ccnc(NS(=O)(=O)c2ccc(NC(=O)CCCOc3ccccc3)cc2)n1` belongs 0.035%. To `COc1cccc(OC)c1C(=O)Nc1ccc(S(=O)(=O)Nc2cc(C)nc(C)n2)cc1` belongs 11.3%; to `Cc1cnc(Nc2cccc(C3CN(C(=O)COc4ccccc4)CCO3)n2)s1` (stereo unspecified), -5.58%; to `CCCCc1cnc(Nc2cccc(C3CCN(C(=O)[C@@H]4CCCCN4CCO)CC3)n2)s1`, -11%. With `Cc1ccc(OCCCC(=O)Nc2ccc(S(=O)(=O)Nc3nc(C)cc(C)n3)cc2)cc1`, the relative growth recovery is -0.85%.

For the molecule `COc1cc(NS(=O)(=O)c2ccc(Nc3nc(-c4sc(N)nc4C)cs3)cc2)nc(OC)n1`, the relative growth recovery was -3.96%. To `Nc1ccc(S(=O)(=O)Nc2nccc(/C=C/c3ccccc3F)n2)cc1` belongs -0.59%; to `O=C(/C=C/c1ccccc1)N1CCC(c2csc(Nc3ccc(F)cn3)n2)CC1`, -2.47%; to `CC(C)(C)C(=O)N1CCOC(c2cccc(Nc3ncc(Cc4ccccc4Cl)s3)n2)C1` (stereo unspecified), 1.07%.

Regarding `CCCC(=O)Nc1ccc(S(=O)(=O)Nc2ncccn2)cc1`, the relative growth recovery was 0.76%.

As for `CN(CCC(=O)N1CCOC(c2cccc(Nc3nccs3)n2)C1)c1cccc(F)c1` (stereo unspecified), the relative growth recovery was -1.83%. To `CCOCc1ccc(C(=O)N2CCC(c3cccc(Nc4ncc(C)s4)n3)CC2)cc1` belongs 29.5%; to `Cc1cc(NS(=O)(=O)c2ccc(NC(=O)C(C)C)cc2)nc(C)n1`, -8.98%; to `COc1ccc(C(=O)Nc2ccc(S(=O)(=O)Nc3nccc(C)n3)cc2)cc1[N+](=O)[O-]`, 2.66%. To `Cc1cnc(Nc2cccc(C3CCN(C(=O)C4CC(=O)OC45CCCCC5)CC3)n2)s1` (stereo unspecified) belongs -16.7%; to `CCCC(C)C(=O)Nc1ccc(S(=O)(=O)Nc2nccc(C)n2)cc1` (stereo unspecified), 2.04%; to `CN(CCC(=O)N1CCCC1c1cccc(Nc2nccs2)n1)c1ccccc1F` (stereo unspecified), 7.22%. The same measure for `Cc1cc(C)nc(NS(=O)(=O)c2ccc(NC(=O)C(C)C)cc2)n1`: -7.38%. Turning to `Cc1cc(C)nc(NS(=O)(=O)c2ccc(NC(=S)NC(=O)c3cccnc3)cc2)n1`, the relative growth recovery is -4.47%. To `Cc1cc(C)nc(NS(=O)(=O)c2ccc(NC(=O)CSc3nc4c(cc3C#N)CCCCC4)cc2)n1` belongs -5.67%; to `CCOC(=O)C(=O)Nc1ccc(S(=O)(=O)Nc2ncccn2)cc1`, 0.66%; to `Cc1cc(C)nc(NS(=O)(=O)c2ccc(NC(=O)c3cccs3)cc2)n1`, -4.97%. To `Cc1nc(/C=C/C(=O)N2CCC(c3cc4ccccc4c(Nc4nccs4)n3)CC2)cs1` belongs -17.8%. As for `COc1ccc(S(=O)(=O)Nc2cccc3cn[nH]c23)c(C)c1C`, the relative growth recovery was -0.345%. For the molecule `Cc1nc(Nc2cccc(C3CCN(C(=O)C4CC=CCC4)CC3)n2)sc1C` (stereo unspecified), the relative growth recovery is -3.09%. To `Cc1cnc(Nc2cccc(C3CCCN3C(=O)c3nccc4ccccc34)n2)s1` (stereo unspecified) belongs 2.39%. To `COc1ccc(C(=O)Nc2ccc(S(=O)(=O)Nc3nccc(C)n3)cc2)cc1` belongs -3.71%. The same measure for `Cc1cc(C)c(C(=O)Nc2ccc(S(=O)(=O)Nc3cc(C)nc(C)n3)cc2)c(C)c1`: -1.16%; for `Cc1cc(C)nc(NS(=O)(=O)c2ccc(NC(=O)c3ccccc3C)cc2)n1`: 2.68%. As to `Cc1cc(NS(=O)(=O)c2ccc(NC(=O)CCCOc3ccc(Cl)cc3)cc2)nc(C)n1`, the relative growth recovery is -1.54%.
